The campaign covered roughly 110,000 compounds. About 230 (0.21%) showed an effect of 50% or more. Some of the results follow.
Each molecule was assayed against DPAP1 (Plasmodium falciparum, UniProt Q8IIJ9) (assay: primary screen, percent inhibition; read by cleavage of a fluorogenic dipeptide substrate; higher = more effect of the substance).
Set-up: species or system P. falciparum D10 trophozoite lysates; single well
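Further: 30 min substrate incubation versus DMSO and 10 µM JCP410 controls.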

Sequence of DPAP1 (Q8IIJ9 whole entry, looked up): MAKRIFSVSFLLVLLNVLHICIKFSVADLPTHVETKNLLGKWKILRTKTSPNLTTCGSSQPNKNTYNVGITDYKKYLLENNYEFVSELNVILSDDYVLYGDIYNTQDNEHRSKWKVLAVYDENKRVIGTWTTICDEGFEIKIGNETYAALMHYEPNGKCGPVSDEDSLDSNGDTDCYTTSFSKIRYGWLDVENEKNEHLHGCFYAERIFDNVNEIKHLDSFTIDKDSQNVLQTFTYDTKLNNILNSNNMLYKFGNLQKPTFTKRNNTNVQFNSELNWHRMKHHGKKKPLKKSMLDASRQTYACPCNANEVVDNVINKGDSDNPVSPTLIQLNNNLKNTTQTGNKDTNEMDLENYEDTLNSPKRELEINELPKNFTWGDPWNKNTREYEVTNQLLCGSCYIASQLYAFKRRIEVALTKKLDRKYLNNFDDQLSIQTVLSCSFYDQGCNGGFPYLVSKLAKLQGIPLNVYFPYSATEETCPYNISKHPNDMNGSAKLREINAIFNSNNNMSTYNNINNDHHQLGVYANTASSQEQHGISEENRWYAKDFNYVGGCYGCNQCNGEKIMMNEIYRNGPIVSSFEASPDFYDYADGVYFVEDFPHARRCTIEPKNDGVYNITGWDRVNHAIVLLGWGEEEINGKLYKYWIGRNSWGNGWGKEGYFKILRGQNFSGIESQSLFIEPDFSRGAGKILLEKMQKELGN

Row | Compound | % Inhibition @ 10 uM
1 | O=C(CCN1C(=O)c2ccccc2C1=O)N1CCC(c2ccccc2)C1 (stereo not shown) | -2.67%
2 | Cc1ccc2c(CN(Cc3cccs3)C(C)C)cc(=O)oc2c1 | 0.00706%
3 | CC(Oc1ccccc1F)C(=O)Nc1nc(-c2ccc(S(=O)(=O)N3CCOCC3)cc2)cs1 (stereo not shown) | 3.93%
4 | CCC(C)NC(=O)c1ccc(-n2c(C)cc3c2CCC(C)C3)cc1 (stereo not shown) | -3.6%
5 | CC1CCCC(C)N1CCCNC(=O)CCc1cn(C)c2ccccc12 (stereo not shown) | 5.6%
6 | Cc1c(CNCc2ccc(OC(C)C)cc2)c(C(=O)O)c(C)n1Cc1ccccc1F | 1.41%
7 | CCOC(=O)c1cnn2c(C)cc(-c3ccc(OCC)cc3)nc12 | -5.2%
8 | Cn1c2ccccc2c2cnn(CC(=O)N3CCN(c4ncccn4)CC3)c(=O)c21 | 53.7%
9 | CCOc1ccc(S(=O)(=O)NCc2ccccn2)c(C)c1C | -3.33%
10 | COc1ccc(C)cc1NC(=O)c1cccc(OC(F)F)c1 | -7.32%
11 | CCCNc1cc(C)oc(=O)c1C(C)=O | -0.828%
12 | CCN1CCC(NCc2ccccc2F)CC1 | -0.292%
13 | CCOc1cccc(C(=O)N[C@@H](CC2CCCCC2)C(=O)NCC#N)c1 | 1.35%
14 | CCc1nc(SC)ncc1C(=O)NC1CCCCC1 | -3.19%
15 | COc1ccc(/C=N/CCN2Cc3ccccc3C2=O)cc1OC | 1.76%
16 | COC(=O)c1cc(=O)n2c(-c3ccccc3)csc2n1 | -5.28%
17 | Cc1nnc(SC2CCN(S(=O)(=O)c3ccc(F)cc3)CC2)s1 | 2.05%
18 | CCN(CC)S(=O)(=O)c1cccc(C(=O)Nc2ccccc2C(=O)O)c1 | -0.0217%
19 | C/C(=N\Cc1ccccc1)c1c(O)c2ccccc2n(Cc2ccccc2)c1=O | 1.43%
20 | Cc1oc(-c2ccc(C(=O)NC3CCCc4ccccc43)cc2)nc1CS(=O)(=O)c1ccccc1 (stereo not shown) | -3.1%
21 | CCc1nc(C(=N)NOC(=O)c2cc3c([nH]c4ccccc43)c(C)n2)no1 | 11.3%
22 | O=S(=O)(c1cccc2nonc12)N1CCc2ccccc21 | -3.18%
23 | CCCCCCC1CC(=O)N(Cc2ccc(C(=O)OC)cc2)C(=O)N1 (stereo not shown) | -6.94%
24 | COc1ccc(C2OC(=O)CC2C(=O)NC2CCCC(C)C2C)cc1OC (stereo not shown) | -2.92%
25 | Cc1ccc(C2C(C#N)=C(N)Oc3[nH]nc(-c4ccc5ccccc5c4)c32)o1 (stereo not shown) | 1.57%

Row | Compound | % Inhibition @ 10 uM
26 | CCOc1ccc(NC2=C(Cl)C(=O)N(c3ccccc3C)C2=O)cc1 | -1.06%
27 | CC(=O)c1c(-c2ccccc2)nc2n(C)c3ccccc3n12 | 9.53%
28 | CC(C)CCNC(=O)CNC(=S)N(Cc1ccccc1)Cc1cccnc1 | -3.94%
29 | COc1cccc(CNC(=O)CNC(=S)N(CCCN2CCOCC2)Cc2cccs2)c1 | 2.84%
30 | CC12CC3CC(C)(C1)CC(NC=O)(C3)C2 | -8.88%
31 | O=S(=O)(NCc1cccnc1)c1ccc(-c2cc(C(F)(F)F)no2)s1 | -5.31%
32 | CCCC(=O)n1nc(-c2ccco2)nc1NCc1cccs1 | -3.24%
33 | CCOc1cccc2c1OC1(CCCCC1)N1N=C(c3cccnc3)CC21 (stereo not shown) | 7.95%
34 | CC(C)CCNC(=O)CC(c1cccs1)N1Cc2ccccc2C1=O (stereo not shown) | -4.21%
35 | CCO/C(O)=C(\C=N\C1CC1)C(=O)c1cc(F)c(F)cc1Cl | 0.408%
36 | Cc1ccc(CCN2CC(C(=O)NCc3ccc(C)cc3)CC2=O)cc1 (stereo not shown) | 1.62%
37 | Cc1cc(C)nc(NC(=O)c2ccc3c(c2)OCO3)c1 | 3.21%
38 | CN(C)CCCN(CCCN(C)C)Cc1cc([N+](=O)[O-])ccc1Cl | 4.28%
39 | COc1cc2c(cc1OC)C(C(=O)NCc1ccc(F)cc1)C(c1cccnc1)N(C)C2=O (stereo not shown) | 0.287%
40 | Cc1ccc(S(=O)(=O)Cc2ccc(C(=O)NCCCN3CCCC3=O)o2)cc1 | -3.09%
41 | CC12CN3CC(C)(CN(C1)C3c1ccc(Br)cc1)C2 (stereo not shown) | 4.64%
42 | COc1ccc(/C=N/N=C2\SCC(=O)N2Cc2ccc(F)cc2)cc1OC | 0.279%
43 | CN(CC(=O)N1CCc2ccccc2C1)S(=O)(=O)c1ccc(Cl)cc1 | -1.81%
44 | CCO/C(O)=C1/C(C)=Nc2ncnn2C1c1cc(OC)c(OC)cc1OC (stereo not shown) | -1.62%
45 | CCOCCCNC(=O)c1ccc(CS(=O)(=O)c2c(Cl)cccc2Cl)o1 | -1.05%
46 | Cc1cc(NS(=O)(=O)c2ccc(NC(=O)c3cccs3)cc2)no1 | 12.1%
47 | CCc1nonc1NC(=O)c1cccs1 | 1.67%
48 | CC(=O)Nc1cccc(C(=O)N[C@@H](CC2CCCCC2)C(=O)NCC#N)c1 | 1.35%
49 | CCCn1c2ccccc2c2cnn(CC(=O)NC3CCCc4ccccc43)c(=O)c21 (stereo not shown) | -3.76%
50 | CCN(CC)S(=O)(=O)c1ccc(Cl)c(C(=O)NC2CCCCC2)c1 | -3.42%

Row | Compound | % Inhibition @ 10 uM
51 | Cn1c(=O)c(C(=O)c2ccc(S(C)(=O)=O)c(Cl)c2Cl)c(O)c2ccccc21 | 1.43%
52 | CC(=O)NCCNC(=O)CCCCn1c(=O)[nH]c2ccsc2c1=O | -5.67%
53 | Cc1[nH]c2ccccc2c1SCCNC(=O)c1ccncc1 | 2.64%
54 | CCOC(=O)C1=C(O)/C(=C\c2cccs2)N=C1C | -5.28%
55 | Cc1cccc(CSc2nc3ccncc3n2CC(=O)NCC2CCCO2)c1 (stereo not shown) | -4.15%
56 | O=C(c1cccc(F)c1)N1CCN(Cc2ccccc2C(F)(F)F)CC1 | 2.3%
57 | O=[N+]([O-])c1ccc(-c2cn3cc(Cl)ccc3n2)cc1 | -4.11%
58 | CCCCOc1ccc(CN2CCC(C(=O)OCC)CC2)cc1 | 1.62%
59 | O=C(Nc1cc(Cl)c(Cl)cc1Cl)c1cccnc1 | 0.827%
60 | CN(C)CCN(Cc1ccccc1)Cc1ccsc1 | -1.21%
61 | CC1=NC2=C(C(=O)CCC2)C(c2ccccc2)/C1=C(/O)OC(C)C (stereo not shown) | -7.35%
62 | O=C(NC12CC3CC(CC(C3)C1)C2)n1ncc2cc(Cl)ccc21 | 5.42%
63 | O=C1C2CC=CCC2C(=O)N1c1ccc(Oc2ccccc2)cc1 (stereo not shown) | -2.34%
64 | CC(C)CCNC(=O)c1cnn2c(C(F)(F)F)cc(-c3cccs3)nc12 | 1.16%
65 | O=c1oc2ccccc2cc1-c1nnnn1-c1ccc(F)cc1 | -1.07%
66 | COc1ccc(Br)cc1/C=N/n1cnnc1 | 6.23%
67 | CCOc1ccc(C2C(C#N)=C(N)Oc3cc(C)n(Cc4cccnc4)c(=O)c32)cc1 (stereo not shown) | 3.42%
68 | O=C1c2ccccc2-c2c1cnc1c(-c3ccccc3)cnn21 | -5.66%
69 | CC1CCCC(NC(=O)CCCn2c3ccccc3c3cnnc(O)c32)C1C (stereo not shown) | -0.281%
70 | COc1ccc(Cn2c(SCc3ccc(C(=O)O)cc3)nc3cccnc32)cc1 | 1.63%
71 | CO/N=C(\C(=O)Sc1nc2ccccc2s1)c1csc(N)n1 | 7.24%
72 | C=CCN1C(=O)N/C(=C/c2ccc(OCc3ccccc3C#N)c(OC)c2)C1=O | -5.7%
73 | Cc1cc2c([nH]c3ccccc32)c(C)n1 | 6.5%
74 | O=S(=O)(Nc1ccc(S(=O)(=O)Nc2cccc3ccccc23)cc1)c1ccc2c(c1)OCCO2 | -0.473%
75 | CCCNC(=O)C1CCCN(c2nc3ccc(OCC)cc3s2)C1 (stereo not shown) | 0.137%

Row | Compound | % Inhibition @ 10 uM
76 | Cn1c(=O)n(C)c2cc(/C=C3/NC(=O)N(Cc4ccccc4)C3=O)ccc21 | -16%
77 | c1ccc(-c2ccc(CNCCSc3nnnn3-c3ccccc3)o2)cc1 | -8.57%
78 | COc1ccc(-c2cn3nc(N4CCCCC4)sc3n2)cc1 | -0.759%
79 | COc1ccc(C(C(C(=O)c2ccco2)N2CCOCC2)N2CCOCC2)cc1 (stereo not shown) | -5.2%
80 | N#CC1=C(N)Oc2[nH]nc(C(F)(F)F)c2C1c1ccccc1 (stereo not shown) | -2.77%
81 | Cc1ccc(N2C(=O)c3ccccc3C2C#N)cc1Cl (stereo not shown) | -0.69%
82 | CCOc1ccc(CNCc2c(C(=O)O)n(Cc3ccc(F)cc3Cl)c3cc(OC)ccc23)cc1 | 2.06%
83 | Cc1nc(C(=O)O)cc2c1[nH]c1ccccc12 | 2.26%
84 | Cc1ccc(-n2nc3ccc(N)cc3n2)cc1 | -4.21%
85 | CCC(C)N(CCNCc1c(C(=O)O)n(Cc2ccccc2C)c2ccccc12)C1CCCCC1 (stereo not shown) | -3.21%
86 | CC1=CC(c2ccccc2)n2nc(NC(=O)CCC(=O)O)nc2N1 (stereo not shown) | -5.28%
87 | Cc1ccc(NC(=O)C23CC4CC(C2)CC(n2cnc(Br)n2)(C4)C3)c(C)c1 | 4.05%
88 | COc1ccc(C(=O)OCC(=O)c2ccc(Br)cc2)cc1OC | 10.4%
89 | N#C/C(=C\c1cccc2ccccc12)c1nc(-c2ccc(F)cc2)cs1 | 0.467%
90 | COc1cccc(-c2ccc(C(=O)N[C@@H](CC(C)C)C(=O)NCC#N)cc2)c1 | 1.71%
91 | CC(=O)Nc1c(C(=O)N(C)Cc2ccco2)cnn1-c1ccccc1Cl | 7.02%
92 | C=CCn1/c(=N\C(=O)CC)n(Cc2ccccc2)c2ccccc21 | -3.39%
93 | COc1cc(NC(=O)Cc2ccc(Br)cc2)c(OC)cc1Cl | -10.2%
94 | Nc1cc(=O)nc(SCC(=O)NCc2ccccc2)n1CCc1ccccc1 | -2.5%
95 | O=C1CCCC(O)=C1C(C1=C(O)CCCC1=O)c1ccc(O)cc1 | 5.54%
96 | O=C(c1cc(-c2ccccc2)nc2ccc(Br)cc12)N1CCOCC1 | -0.641%
97 | O=C(Cn1c(=O)c2cccn2c2cccnc21)NC1CCCCCC1 | -1.81%
98 | CC1CCCCN1Cc1nc2c(c(=O)n(C)c(=O)n2C)n1CC(N)=O (stereo not shown) | -5.1%
99 | CCC(C)NC(=O)CN1C(=O)c2cccc3cccc1c23 (stereo not shown) | -7.93%
100 | O=C(Nc1ccccn1)NC(C(F)(F)F)C(F)(F)F | -4.21%

Source: PMC6919601, “Identification of Plasmodium dipeptidyl aminopeptidase allosteric inhibitors by high throughput screening” (PLoS ONE, 2019)
